Results: PubChem BioAssay AID485344 (National Center for Advancing Translational Sciences (NCATS), 2010)
The campaign covered roughly 340,000 compounds. About 6,900 (2%) were called active. Rule as the data show it: active = inhibition above about 30%; inactive = below that, where a call was filed. The entries are a selection whose mix differs from that of the whole data set. Entries without a call were filed so in the source.

What follows are compounds tested against D(2) dopamine receptor (Homo sapiens) (UniProt P14416) (assay: HTS Assay for Allosteric Antagonists of the Human D2 Dopamine Receptor: Primary Screen for Antagonists). Details: HEK293 TREx D2 cells, calcium flux, dopamine EC80; at 10 µM; stronger effect = higher value.
In short: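 Overnight-induced (tetracycline, 30 C) HEK293 T-REx cells carrying force-coupled D2 receive a no-wash calcium dye, then compound, then EC80 dopamine at 180 s; signals are read kinetically throughout.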
Also: 0% is about no effect.

Sequence of UniProt P14416 (P14416 whole entry, looked up): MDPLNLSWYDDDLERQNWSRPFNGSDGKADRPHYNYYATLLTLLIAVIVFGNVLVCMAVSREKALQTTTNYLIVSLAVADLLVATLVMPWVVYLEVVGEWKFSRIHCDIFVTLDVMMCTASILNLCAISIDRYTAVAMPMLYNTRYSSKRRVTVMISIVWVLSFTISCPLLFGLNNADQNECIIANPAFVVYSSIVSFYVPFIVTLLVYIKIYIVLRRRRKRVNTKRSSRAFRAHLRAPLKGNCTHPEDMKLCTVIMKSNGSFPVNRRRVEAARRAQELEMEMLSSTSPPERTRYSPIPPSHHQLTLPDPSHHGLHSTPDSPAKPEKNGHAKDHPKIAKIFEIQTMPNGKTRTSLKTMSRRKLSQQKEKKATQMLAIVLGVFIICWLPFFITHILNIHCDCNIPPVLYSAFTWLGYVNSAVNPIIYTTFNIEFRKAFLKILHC

| SMILES | inhibition |
| --- | --- |
| COc1ccccc1OC(C)C(=O)Nc1c(C(=O)c2ccc(Cl)cc2)oc2ccccc12 (stereo unspecified) | -4.32% |
| Cn1c(=O)oc2cc(S(=O)(=O)NC(Cc3ccccc3)C(=O)NCc3ccc(F)cc3)ccc21 (stereo unspecified) | 7.07% |
| Cc1ccc(C)c(N2CCN(Cc3nnc(-c4ccc5c(c4)OCO5)o3)CC2)c1 | 8.51% |
| CCn1c(C)c(C)c2cc(C(=O)NCCCN3CCCCC3)ccc21 | -24.1% |
| CCC(=O)N1c2ccccc2CC1C(=O)NCCN1CCN(c2cccc(C(F)(F)F)c2)CC1 (stereo unspecified) | -10% |
| CCOc1ccc(CNS(=O)(=O)c2ccc3[nH]c(=O)ccc3c2)cc1 | -12.3% |
| C/C=C(\C)CN1CCN(c2ccccc2F)CC1 | active: 65.4% |
| CC(=O)Nc1nonc1-c1nnc(SCC(=O)Nc2ccccc2)n1-c1ccccc1 | -0.7% |
| CCCCOc1ccc(CNC(=O)c2ccc(NC(=O)N3CCCCc4ccccc43)cc2)cc1 | -18.1% |
| O=C(CCCn1c(=O)c2cccn2c2ccc(F)cc21)NCc1ccc(Cl)cc1 | 5.27% |
| CCc1ccc(NC(=O)C(=O)NCC(c2cccnc2)N2CCN(Cc3ccccc3)CC2)cc1 (stereo unspecified) | 13.5% |
| Cc1ccc(-n2nc(CO)c(C(=O)NC(C)CCCc3ccccc3)n2)cc1C (stereo unspecified) | -4.28% |
| CC1CCN(C(=O)CSc2c(C(C)C)cnc3c2c(=O)n(C)c(=O)n3C)CC1 | 13.3% |
| COC(=O)CC1Oc2ccccc2-n2cc(-c3ccccc3)nc21 (stereo unspecified) | -9.5% |
| Cc1ccccc1CSc1nc2cc(C(=O)NC3CCCC3)ccc2c(=O)n1Cc1ccccc1 | -16.1% |
| Cc1cc2c(cc1C)NC(CC(=O)Nc1ccccc1)C(=O)N2 (stereo unspecified) | -23.2% |
| CCN(Cc1ccccc1)C(=O)Cn1cc(S(=O)(=O)Cc2cccc(Cl)c2)c2ccccc21 | -1.87% |
| Cc1ccc(O)c(NC(=O)c2ccc(Br)c(S(=O)(=O)N3CCCCC3)c2)c1 | -6.33% |
| Cc1ccc(S(=O)(=O)N(CC(=O)N2CCCCC2)c2cccc(C)c2)cc1 | active: 31.8% |
| CCS(=O)(=O)c1ncc(N(Cc2ccccc2)Cc2ccco2)c(C(=O)Nc2ccc(C)c(C)c2)n1 | -3.37% |
| CCOc1ccc(NC(=O)c2ccc3c(=O)n4nc(Nc5ccccc5C)sc4nc3c2)cc1 | -1.39% |
| CCn1c(NCc2ccc(OC)cc2)nc2ccccc21 | 8.04% |
| COc1ccc(CCNC(=O)CCCCn2c(=O)c3ccccc3n(Cc3ccccc3C)c2=O)cc1OC | 3.76% |
| COc1cc(C(CC(=O)Nc2ccc(F)cc2F)N2Cc3ccccc3C2=O)cc(OC)c1OC (stereo unspecified) | 2.95% |

| SMILES | inhibition |
| --- | --- |
| COCCNC(=O)CCc1c(C)nc2c(-c3ccc(F)cc3)c(C)nn2c1C | -8.49% |
| CCC(=O)Nc1ccc(CC)cc1-c1nc2ccccc2n(CC(=O)Nc2cccc(Cl)c2)c1=O | 3.9% |
| CCCCCn1cc2c(c1-c1ccc(Br)cc1)c(=O)n(C)c(=O)n2C | -12.6% |
| COc1ccc(OC)c(NC(=O)c2cc3cc(C)ccc3n2C)c1 | 5.26% |
| CCc1ccccc1NC(=O)Cn1c(=O)n(-c2ccc(C)cc2)c(=O)c2c1c1cc(C)ccc1n2C | -1.82% |
| Cc1nc2ncnn2c(C)c1CCC(=O)N1CCN(c2ccccc2)CC1 | -25.5% |
| O=C(Cn1c(=O)oc2cc(Cl)ccc21)Nc1cccc(C(F)(F)F)c1 | 9.02% |
| COc1cccc(NC(=O)Cn2nnc(-c3nc(-c4ccccc4)no3)c2N)c1 | -0.588% |
| COc1ccc(NC(=O)c2ccc3nc(CCc4ccccc4)oc3c2)c(OC)c1 | 24.4% |
| CCOc1ccc(C(=O)Nc2c(C(=O)c3ccc(OC)cc3)oc3ccccc23)cc1 | 3.32% |
| O=C(NCCc1ccccc1)c1ccc(Cn2c(SCc3cccc(F)c3)nc3cccnc32)cc1 | 11.9% |
| N#C/C(=C\c1ccc(O)c(Br)c1)C(=O)NCc1ccccc1 | active: 69.4% |
| COc1ccccc1N1CCN(Cc2cccc(OC)c2OC)CC1 | active: 71.3% |
| Cc1nn(CC(=O)Nc2ccccc2C(F)(F)F)c(=O)c2cccn12 | 6.58% |
| CCCCN(CC)CCNC(=O)CN1C(=O)COc2ccc(S(=O)(=O)N3CCCC3)cc21 | -11.4% |
| Cc1ccc(CCNC(=O)CCn2nc(-c3ccccc3)ccc2=O)cc1 | -3.62% |
| CCCSCCCNC(=O)C1CCCN(c2nn3cc(-c4ccc(OC)cc4)nc3s2)C1 (stereo unspecified) | -4.36% |
| Cn1c(=O)c(=O)n(C)c2cc(NC(=O)c3cccc(F)c3)c(Cl)cc21 | -18.1% |
| COc1ccc(CCNC(=O)Cn2c(=O)nc(-c3ccccc3)c3ccccc32)cc1OC | 1.68% |
| COc1ccc(N(CC(=O)NCc2ccccc2Cl)S(=O)(=O)c2c(C)nn(C)c2C)cc1 | -16.1% |
| CCOc1ccc(C(=O)c2cn(CC(=O)Nc3ccc(F)cc3)c3cc4c(cc3c2=O)OCO4)cc1 | 15.1% |
| CCOc1ccccc1CNC(=O)CCCn1ncn2c(cc3occc32)c1=O | -6.29% |
| CN(C)CCCN(C(=O)c1ccc(Br)s1)c1nc2ccc(F)cc2s1 | 7.42% |
| Cc1ccc2cccc(NC(=O)COc3cc(C)c(Cl)c(C)c3)c2n1 | 17.8% |

| SMILES | inhibition |
| --- | --- |
| Fc1ccc(C(NCCc2ccc(Cl)cc2)c2nnc(-c3ccccc3)o2)c(Cl)c1 (stereo unspecified) | 20.5% |
| COc1ccccc1CNC(=O)CCn1c(=O)c2ccccc2n(CC(=O)Nc2ccc(C)cc2Cl)c1=O | 0.878% |
| Cc1c(NC(=O)Nc2ccc(Br)cc2F)sc2nc3n(c(=O)c12)CCC(C)CC3 (stereo unspecified) | 4.25% |
| Cc1nn2c(=O)cc(CSc3nc4ccccc4[nH]3)nc2s1 | active: 38.8% |
| CCc1cccc(C)c1NC(=O)c1cc(S(=O)(=O)NCc2ccccc2Cl)ccc1F | 27.3% |
| CCCn1c2ccccc2c2cnn(CC(=O)N(C)c3ccccc3CC)c(=O)c21 | 17% |
| Cc1ccc(NS(=O)(=O)c2ccc3[nH]c(=O)oc3c2)c(C)c1 | -5.48% |
| O=C(CCC1N=C2c3ccccc3N=C(SCc3ccc(Cl)cc3)N2C1=O)NCCc1ccccc1 (stereo unspecified) | 2.37% |
| Cn1c(=O)cc(OCCCC(=O)NCCN2CCN(c3ccccc3F)CC2)c2ccccc21 | active: 35.6% |
| COc1cc2nc(SCC(=O)Nc3c(C)cc(C)cc3C)n3nc(CCn4c(C)nc5ccccc54)nc3c2cc1OC | -8.52% |
| Cc1ccc(CSc2oc(-c3ccco3)nc2S(=O)(=O)c2ccc(C)cc2)cc1 | -4.93% |
| COc1cc(/C=C(\C#N)c2nc3ccccc3[nH]2)cc(Cl)c1OCc1ccccc1Cl | 8.6% |
| CCc1ccc(-n2c(=O)c3c(C)c(C)sc3n(CC(=O)NCc3ccc(C)cc3)c2=O)cc1 | 25.1% |
| CCOC(=O)c1ccc(NC(=O)/C(C#N)=C/c2ccc(OC)cc2)cc1 | -7.64% |
| CCCCc1nn2c(=O)cc(COC(=O)c3cccc(NC(=O)CCc4ccccc4)c3)nc2s1 | -4.1% |
| CCCN(CCC)C(=O)Cn1c(=O)n(-c2ccccc2)c(=O)c2c3c(sc21)CCCC3 | -3.35% |
| N#C/C(=C/c1ccc(Cl)cc1)c1nc(-c2ccc(Br)cc2)cs1 | -0.716% |
| C/C(=N\NC(=O)C1(C)CC1(Br)Br)c1cccc(NC(=O)C2CCC2)c1 (stereo unspecified) | active: 30.2% |
| O=C(Nc1ccc(OC(F)(F)F)cc1)c1nc2ccccc2nc1N1CCCCC1 | 5.98% |
| CCn1c2ccccc2c2cc(CN3CCN(Cc4ccccc4Cl)CC3)ccc21 | -7.24% |
| CCC(=O)NNc1nc2c(F)cc(F)cc2s1 | active: 39.5% |
| COc1cccc(NC(=O)CSc2nc3cc(OC)c(OC)cc3c3nc(-c4ccccc4)nn23)c1 | 6.63% |
| COc1cc(OC)c(NC2(c3ccccc3)C(=O)c3ccccc3C2=O)cc1Cl | 0.913% |
| CCc1ccccc1NC(=O)Nc1ccc2c(c1)N(CC)C(=O)c1ccccc1S2 | -6.16% |

| SMILES | inhibition |
| --- | --- |
| CCOc1ccccc1CNC(=O)c1cc2n(n1)CCCN(Cc1ccc(C)cc1)C2=O | 7.76% |
| CCc1cccc(-n2c(C)nc3c(cnn3-c3ccc(C)c(C)c3)c2=O)c1 | -10.8% |
| CCOc1ccc(NC(=O)CSc2nc(C)c(C(=O)Nc3ccccc3)c(-c3ccc(Cl)cc3)c2C#N)cc1 | 6.07% |
| O=C(c1ccc(CSc2nc3ccncc3n2Cc2ccc(F)cc2)cc1)N1CCCCCC1 | 2.88% |
| COCCCNC(=O)c1cc2c(=O)oc3ccc(C)cc3c2s1 | 2.27% |
| CCc1nc2ccc(C(=O)N3CCN(c4cccc(C)c4C)CC3)cc2nc1CC | -8.61% |
| Cc1ccc(-c2nc3c4ccccc4[nH]c(=O)n3n2)cc1 | 0.235% |
| CCOc1ccc(-c2cc(OC(=O)c3ccc(OC)cc3)c3c(C)oc(C)c3c(=O)c2)cc1 | 1.83% |
| Cc1ccc(S(=O)(=O)N(C)CC(=O)OCC(=O)N2CC(=O)Nc3ccccc32)cc1 | active: 36.8% |
| CCOc1ccc(C(=O)N(Cc2sccc2C)C2CCS(=O)(=O)C2)cc1 (stereo unspecified) | -10.6% |
| O=C1CC(c2cccc(O)c2)c2c(nc(SCc3ccccc3F)[nH]c2=O)N1 (stereo unspecified) | -1.43% |
| O=S(=O)(c1ccc2c(c1)OCO2)N1CCN(c2nnnn2-c2ccccc2)CC1 | active: 36.2% |
| C[C@H](NC(=O)OC(C)(C)C)c1nnc(SCc2c(F)cccc2Cl)o1 | 6.12% |
| O=C(CN1CCOCC1)N1CCN(c2ccc([N+](=O)[O-])cc2)CC1 | active: 83.4% |
| CCc1ccc(NC(=O)Cn2nc3c4ccccc4n(Cc4ccccc4)cc-3c2=O)cc1 | -5.8% |
| COc1ccc(COc2ccsc2C(=O)Nc2ccc(Cl)cc2)cc1 | active: 39.9% |
| Cc1cccc(-n2ccnc2SCC(=O)Nc2ccc(F)cc2F)c1C | -7.47% |
| Cc1ccc(C)c(CNC(=O)c2ccc3c(c2)nc2n3CCCCC2)c1 | -22.7% |
| Cc1ccc(C)c(CN2CCC(CNC(=O)Nc3ccc(Br)cc3F)CC2)c1 | 8.77% |
| COc1cc2c(cc1OC)C(COc1ccc3c(C)cc(=O)oc3c1)N(C(=O)C(C)C)CC2 (stereo unspecified) | -8.23% |
| O=C(CSc1nc2nc[nH]c2c(=O)[nH]1)NC1CCCCC1 | active: 47.5% |
| CCOC(=O)c1nc(Nc2ccc(C(C)=O)cc2)c2ccccc2n1 | -14.8% |
| O=C(Nc1c(C(=O)Nc2ccc(F)cc2)oc2ccccc12)c1cc2ccccc2o1 | 0.526% |
| COc1ccc(Cn2c(=O)c3cccnc3n(CC(=O)Nc3ccc(C)c(F)c3)c2=O)cc1 | 3.53% |
